# Values joined by “and” are separate entries in the source; they are usually repeats but may differ in a detail not shown here. Equal entries are not always repeated. Inconclusive results, whose numbers are uncertain, are shown with a selection of clear calls. Potencies of inconclusive entries are doubtful fits and often do not repeat. More than one record can exist for a structure, and the calls need not agree. Active and inactive are the calls of the source. Unless noted, the call rests on the fitted dose curve; in most records, active means well fitted curve in the direction sought with a large enough effect in the repeat runs; inconclusive means weak or mixed curves; inactive means no such curve, though single readings can be large; an effect the other way counts as inactive or inconclusive.
# Tests used:
# [1] = qHTS assay to identify small molecule antagonists of the androgen receptor (AR) signaling pathway using the MDA cell line in the presence of 0.5 nM R1881 - cell viability counter screen (AID 1259242); further: nearly all actives have a fitted effect of over 45% in size
# How it was run: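 MDA-kb2 cells (MMTV-luciferase, AR/GR responsive) were treated with compounds plus 0.5 nM R1881 (final) for 16 hr at 37C, 0% CO2. Viability was then read in the same wells as live-cell protease fluorescence (CellTiter-Fluor, 30 min).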
# [2] = molecular target: Estrogen receptor (Homo sapiens) (UniProt P03372); assay: qHTS assay to identify small molecule antagonists of the estrogen receptor alpha (ER-alpha) signaling pathway using the BG1 cell line in the presence of 0.1 nM 17-beta-estradiol (AID 1259244); further: nearly all actives have a fitted effect of over 50% in size; on activity change, negative = inhibition: on the % scale 0 is the no-effect control and ±100 the full control effect
# UniProt P03372, sequence (P03372 whole entry, looked up): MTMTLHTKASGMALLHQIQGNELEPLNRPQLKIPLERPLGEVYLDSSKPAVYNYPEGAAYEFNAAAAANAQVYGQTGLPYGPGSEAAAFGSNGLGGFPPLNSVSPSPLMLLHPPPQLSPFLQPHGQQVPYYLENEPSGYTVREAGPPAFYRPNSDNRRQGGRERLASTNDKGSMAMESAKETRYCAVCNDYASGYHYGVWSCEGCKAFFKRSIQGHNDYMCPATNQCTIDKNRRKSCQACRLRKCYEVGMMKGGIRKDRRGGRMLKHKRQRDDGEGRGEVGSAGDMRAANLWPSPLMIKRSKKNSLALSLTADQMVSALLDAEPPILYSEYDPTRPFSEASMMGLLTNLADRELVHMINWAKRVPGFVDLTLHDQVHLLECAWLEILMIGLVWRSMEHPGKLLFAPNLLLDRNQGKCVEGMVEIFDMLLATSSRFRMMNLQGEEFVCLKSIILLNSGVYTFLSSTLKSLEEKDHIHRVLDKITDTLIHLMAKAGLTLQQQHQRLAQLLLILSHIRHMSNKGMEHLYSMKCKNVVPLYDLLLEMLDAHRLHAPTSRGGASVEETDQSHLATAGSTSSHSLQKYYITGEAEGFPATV
# How it was run: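 VM7Luc4E2 cells (endogenous full-length ER-alpha, 4×ERE-luciferase), kept 5 days in phenol red-free, charcoal-stripped FBS medium; 4,000 cells/well. Compounds added with 0.1 nM (final) 17beta-estradiol, 22 hr at 37C; luminescence read with ONE-Glo after 30 min.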
# [3] = qHTS assay to identify small molecule agonists of the sonic hedgehog signaling (Shh) pathway - cell viability counter screen (AID 1259366); further: nearly all actives have a fitted effect of over 50% in size
# How it was run: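 CellTiter-Fluor fluorescence read-out, 1 hr at 37C, added after 23hr compound exposure. Cells: 3T3 Gli1-Luc, an NIH/3T3 clone with stably integrated Gli1-Luc reporter, plated 4hr before compound.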
# [4] = qHTS assay to identify small molecule antagonists of the sonic hedgehog signaling (Shh) pathway - cell viability counter screen (AID 1259367); further: nearly all actives have a fitted effect of over 55% in size
# How it was run: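 NIH/3T3-derived Gli1-Luc reporter cells, 2,000/well, plated 4 hr before compound addition, then stimulated with conditioned medium for 24 hr at 37C. Viability measured in the same wells by CellTiter-Fluor fluorescence, reagent added at 23 hr for 1 hr.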
# [5] = molecular target: Estrogen receptor beta (Homo sapiens) (UniProt Q92731); assay: qHTS assay to identify small molecule antagonists of the estrogen receptor beta (ER-beta) signaling pathway (AID 1259378; active means well fitted inhibition curve with a large enough effect in the signal ratio in the repeat runs, not every such curve was filed as active; inconclusive means weak or mixed curves, or effect the other way; inactive means no such curve, though single readings can be large or run the other way; the % refers to the signal ratio; on activity, negative = inhibition: on the % scale 0 is the no-effect control and ±100 the full control effect); conditions: ER-beta-UAS-bla HEK293T, beta-lactamase FRET ratio, 16 h; activity, negative = inhibition: at 92.4 µM (top of the series) unless noted
# UniProt Q92731, sequence (Q92731 whole entry, looked up): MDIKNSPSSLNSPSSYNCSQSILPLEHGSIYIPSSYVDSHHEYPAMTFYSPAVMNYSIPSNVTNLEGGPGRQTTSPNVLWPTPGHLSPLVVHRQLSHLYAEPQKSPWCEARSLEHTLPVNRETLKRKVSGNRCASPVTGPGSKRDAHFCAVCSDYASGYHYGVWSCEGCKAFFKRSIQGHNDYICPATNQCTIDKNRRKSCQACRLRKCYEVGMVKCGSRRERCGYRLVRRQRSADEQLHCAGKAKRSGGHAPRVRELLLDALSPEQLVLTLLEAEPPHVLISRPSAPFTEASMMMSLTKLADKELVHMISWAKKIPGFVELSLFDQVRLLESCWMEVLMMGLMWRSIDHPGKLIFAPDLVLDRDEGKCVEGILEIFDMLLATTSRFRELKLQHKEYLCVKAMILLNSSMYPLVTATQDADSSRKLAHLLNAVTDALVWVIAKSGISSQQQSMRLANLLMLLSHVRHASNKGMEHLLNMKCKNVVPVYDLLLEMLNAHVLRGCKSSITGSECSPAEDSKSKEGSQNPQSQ
# How it was run: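 ER-beta-UAS-bla HEK293T cells in 2% charcoal-stripped FBS medium treated with compound plus 1nM final 17-beta-estradiol for 16 hr at 37C. Beta-lactamase reporter read by FRET substrate fluorescence after 2 hours at room temperature.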
# [6] = qHTS assay to identify small molecule agonists of the estrogen receptor beta (ER-beta) signaling pathway - cell viability counter screen (AID 1259380); further: nearly all actives have a fitted effect of over 30% in size
# How it was run: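 ER-beta-UAS-bla HEK293T cells in medium with 2% charcoal-stripped FBS, pre-incubated 6 hr, then treated 16 hr at 37C. Cytotoxicity read in the same wells by CellTiter-Glo luminescence after 30 min at room temperature.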
# [7] = qHTS assay to identify small molecule antagonists of the estrogen receptor beta (ER-beta) signaling pathway - cell viability counter screen (AID 1259382); further: nearly all actives have a fitted effect of over 55% in size
# How it was run: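 ER-beta-UAS-bla HEK293T cells in 2% charcoal-stripped FBS medium, treated with compound plus 1 nM 17-beta-estradiol for 16 h at 37C. Viability read by CellTiter-Glo luminescence after 30 min at room temperature in the same wells.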
# [8] = qHTS assay to identify small molecule agonists or antagonists of the thyroid stimulating hormone receptor (TSHR) signaling pathway - wild type cell line counter screen (AID 1259384; calls by dose curve; on cAMP activity change: on the % scale 0 is the no-effect control and ±100 the full control effect); conditions: HEK293 wild type, cAMP HTRF counter-screen; cAMP activity change: at 92.4 µM (top of the series), stronger effect = higher value unless noted
# How it was run: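 Wild-type Hek293 cells, 800/well, 18 h at 37C, then compound with Ro20-1724 for 30 min RT. cAMP by HTRF (cAMP-d2/anti-cAMP cryptate), 1 h RT, fluorescence read. 15 concentrations, triplicates.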
# [9] = qHTS assay to identify small molecule agonists of the estrogen receptor alpha (ER-alpha) signaling pathway in the presence of an antagonist - cell viability counter screen (AID 1259386);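 further: cells exposed to compounds for 22 h at 37 °C before the viability read; nearly all actives have a fitted effect of over 30% in size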
# How it was run: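 Cell viability in VM7Luc4E2 cells (endogenous full-length ER-alpha) measured by CellTiter-Fluor fluorescence in the same wells as the luciferase screen. Cells pre-cultured 5 days in charcoal-stripped serum, then treated 22 h with compounds at 15 concentrations plus 10.0nM ICI-182,780.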
# [10] = qHTS assay to identify small molecule agonists of the sonic hedgehog signaling (Shh) pathway (AID 1259368; calls by dose curve; further: nearly all actives have a fitted effect of over 15% in size)
# How it was run: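 NIH/3T3-derived 3T3Gli1-Luc cells with stably integrated Gli1-driven firefly luciferase, 2,000 cells/well, compounds added after 4 hr. Incubated 24 hr at 37C, 5% CO2; luminescence read after 30 min with luciferase reagent at room temperature.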
# [11] = qHTS assay to identify small molecule antagonists of the sonic hedgehog signaling (Shh) pathway (AID 1259369; calls by dose curve; further: nearly all actives have a fitted effect of over 45% in size)
# How it was run: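 NIH/3T3-derived Gli1-Luc reporter cells plated 4 h, dosed with compound, then stimulated with conditioned medium for 24 h at 37 C. Firefly luciferase luminescence read after 30 min with detection reagent at room temperature.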
# [12] = molecular target: Estrogen receptor beta (Homo sapiens) (UniProt Q92731); assay: qHTS assay to identify small molecule agonists of the estrogen receptor beta (ER-beta) signaling pathway (AID 1259377; active means well fitted activation curve with a large enough effect in the signal ratio in the repeat runs, not every such curve was filed as active; inconclusive means weak or mixed curves, or effect the other way; the % refers to the signal ratio); conditions: ER-beta-UAS-bla HEK293T, beta-lactamase FRET ratio, 16 h; activation: at 92.4 µM (top of the series) unless noted
# How it was run: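 Beta-lactamase reporter readout: fluorescence of LiveBLAzer B/G FRET substrate after 2 h at room temperature, following 16 h compound treatment of ER-beta-UAS-bla HEK293T cells at 37C in 2% charcoal-stripped FBS medium.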
# [13] = molecular target: Estrogen receptor (Homo sapiens) (UniProt P03372); assay: qHTS assay to identify small molecule agonists of the estrogen receptor alpha (ER-alpha) signaling pathway in the presence of an antagonist (AID 1259383; calls by dose curve; further: nearly all actives have a fitted effect of over 15% in size)
# How it was run: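 VM7Luc4E2 cells express endogenous full-length ER-alpha with an ERE-luciferase reporter and were hormone-deprived for 5 days. Compounds at 15 concentrations were added with 10.0nM ICI-182,780 for 22hr at 37C. Luminescence was read with ONE-Glo.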
# [14] = qHTS assay to identify small molecule agonists of the androgen receptor (AR) signaling pathway in the presence of an antagonist - cell viability counter screen (AID 1259379); further: nearly all actives have a fitted effect of over 25% in size
# How it was run: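 MDA-kb2 cells (MMTV-luciferase, AR/GR), 3,000/well, 5 h attachment, then 3.0 µM nilutamide (final) and compounds at 15 concentrations. Viability by CellTiter-Fluor fluorescence after 16 h at 37 °C, 0% CO2, in the reporter wells.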
# [15] = molecular target: Thyrotropin receptor (Homo sapiens) (UniProt P16473); assay: qHTS assay to identify small molecule antagonists of the thyroid stimulating hormone receptor (TSHR) signaling pathway (AID 1259385; calls by dose curve; further: nearly all actives have a fitted effect of over 20% in size; on activity change, negative = inhibition: on the % scale 0 is the no-effect control and ±100 the full control effect); conditions: TSHR-HEK293 cAMP HTRF, TSH-stimulated antagonist mode; activity change, negative = inhibition: at 92.4 µM (top of the series) unless noted
# UniProt P16473, sequence (P16473 whole entry, looked up): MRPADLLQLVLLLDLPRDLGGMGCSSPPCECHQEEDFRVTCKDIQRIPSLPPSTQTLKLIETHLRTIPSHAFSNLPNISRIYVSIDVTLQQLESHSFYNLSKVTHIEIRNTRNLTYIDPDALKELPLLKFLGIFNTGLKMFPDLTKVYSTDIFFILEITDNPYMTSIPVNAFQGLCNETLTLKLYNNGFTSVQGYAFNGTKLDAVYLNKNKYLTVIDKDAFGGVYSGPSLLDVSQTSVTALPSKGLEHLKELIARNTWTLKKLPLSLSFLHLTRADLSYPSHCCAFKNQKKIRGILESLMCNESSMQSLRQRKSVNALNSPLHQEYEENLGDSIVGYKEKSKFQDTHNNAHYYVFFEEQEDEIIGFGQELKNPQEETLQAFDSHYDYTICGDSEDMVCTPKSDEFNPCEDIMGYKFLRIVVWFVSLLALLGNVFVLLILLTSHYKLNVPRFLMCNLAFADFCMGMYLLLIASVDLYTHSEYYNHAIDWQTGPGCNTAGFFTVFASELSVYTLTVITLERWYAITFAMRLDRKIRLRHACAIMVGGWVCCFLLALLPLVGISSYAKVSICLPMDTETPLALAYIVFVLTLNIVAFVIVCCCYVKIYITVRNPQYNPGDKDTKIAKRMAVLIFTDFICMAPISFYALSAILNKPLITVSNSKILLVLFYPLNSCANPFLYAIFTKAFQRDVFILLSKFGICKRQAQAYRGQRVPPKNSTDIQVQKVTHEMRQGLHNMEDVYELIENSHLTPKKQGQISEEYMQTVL
# How it was run: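 TSHR-HEK293 cells (800/well) plated 18 h, then compounds with Ro20-1724 and TSH at 1.5 ng/mL final, 30 min at room temperature. cAMP quantified by HTRF (cAMP-d2/anti-cAMP-cryptate, 1 h); 15 concentrations in triplicate.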
# [16] = qHTS assay to identify small molecule phospholipidosis (PLD) inducers (AID 1259344; active means well fitted curve in the direction sought with a large enough effect; inconclusive means small, poorly fitted or top-dose-only effect, or another doubt; inactive means no such curve, though single readings can be large; an effect the other way counts as inactive or inconclusive)
# How it was run: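 HepG2 cells, 900/well, treated with compound plus LipidTOX Red for 24 h at 37 C; amiodarone positive and DMSO negative controls. Fixed with paraformaldehyde/Hoechst, then high-content imaging scored LipidTOX pit count and integrated intensity per well and per cell.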
# [17] = qHTS assay to identify small molecule HDAC inhibitors (AID 1259364); further: nearly all actives have a fitted effect of over 45% in size
# How it was run: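 Wild-type HCT-116 cells, plated overnight at 37 C, exposed to compounds 2 hr at 37 C; luminogenic HDAC-Glo substrate then added 30 min at room temperature. Luminescence reports relative endogenous class I/II HDAC activity.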
# Potency means the concentration at half of the fitted maximal effect; tags describe the fitted curve by direction and shape or compound fluorescence and quenching.
smiles,measurement,setting,value
O=C1CN(/N=C/c2ccc([N+](=O)[O-])o2)C(=O)N1,Potency,[1],"inconclusive: 27.2 µM [cytotoxic, partial curve] and inconclusive: 26.6 µM [cytotoxic, partial curve]"
same,Potency,[2],"inconclusive: 48.4 µM [inhibitor, partial curve] and inconclusive: 68.6 µM [inhibitor, single point]"
same,Potency,[3],"inconclusive: 30.5 µM [cytotoxic, partial curve] and active: 48.6 µM and inconclusive: 33.5 µM [cytotoxic, single point]"
same,Potency,[4],"active: 48.4 µM and active: 38.6 µM and inconclusive: 26.6 µM [cytotoxic, partial curve, poor fit]"
same,Potency,[5],inconclusive: 30.5 µM and inconclusive: 38.6 µM
same,"activity, negative = inhibition",[5],inconclusive: -45.2% [at 42.5 µM]
same,Potency,[6],"inconclusive: 30.5 µM [cytotoxic] and inconclusive: 77 µM [cytotoxic, single point] and inconclusive: 33.5 µM [cytotoxic, single point]"
same,Potency,[7],"inconclusive: 54.3 µM [cytotoxic, partial curve] and inactive and inconclusive: 26.6 µM [cytotoxic, partial curve, poor fit]"
same,cAMP activity change,[8],inconclusive: 2.48%
same,Potency,[9],active: 30.5 µM and active: 54.5 µM and active: 18.8 µM
Cc1c2ccccc2c(C)c2c1ccc1ccccc12,Potency,[1],active: 61.1 µM
same,Potency,[2],inactive and active: 4.33 µM
same,Potency,[10],"inconclusive: 27 µM [activator, partial curve]"
same,Potency,[11],"inconclusive: 48.1 µM [inhibitor, partial curve, poor fit] and active: 10.9 µM"
same,Potency,[12],"inconclusive: 24.1 µM [fluorescent, partial curve] and inconclusive: 8.63 µM [fluorescent, full curve]"
same,Potency,[5],inconclusive: 27 µM and inconclusive: 27.3 µM [full curve]
same,Potency,[6],active: 30.3 µM and active: 27.3 µM
same,Potency,[7],"inconclusive: 24.1 µM [cytotoxic, full curve]"
same,Potency,[13],"inconclusive: 15.2 µM [activator, partial curve, poor fit] and inconclusive: 48.6 µM [activator, partial curve, poor fit]"
COc1cccc(-c2ccc(/C=C\CN3CCCCCC3)cc2Cl)c1,Potency,[1],"inconclusive: 48.3 µM [cytotoxic, partial curve]"
same,Potency,[2],"inconclusive: 60.9 µM [inhibitor, partial curve]"
same,Potency,[3],"inconclusive: 60.9 µM [cytotoxic, single point]"
same,Potency,[4],inconclusive: 68.3 µM [cytotoxic]
same,Potency,[5],"inconclusive: 60.9 µM [inhibitor, single point]"
same,Potency,[14],"inconclusive: 60.9 µM [cytotoxic, single point]"
same,Potency,[6],"inconclusive: 108 µM [cytotoxic, partial curve, poor fit]"
same,Potency,[7],"inconclusive: 68.3 µM [cytotoxic, single point]"
same,Potency,[15],inconclusive: 68.3 µM
CCCCc1oc2ccccc2c1C(=O)c1cc(I)c(OCCN(CC)CC)c(I)c1,Potency,[1],"inconclusive: 48.9 µM [cytotoxic, single point] and inconclusive: 29.8 µM [cytotoxic]"
same,Potency,[16],active: 10 µM
same,Potency,[3],inconclusive: 33.5 µM [cytotoxic]
same,Potency,[4],"inconclusive: 54.9 µM [cytotoxic, single point]"
same,Potency,[5],active: 21.9 µM and active: 26.6 µM
same,Potency,[6],active: 19.5 µM and active: 29.8 µM
same,Potency,[15],"inconclusive: 29.8 µM [falling, partial curve]"
same,Potency,[9],"inconclusive: 54.9 µM [cytotoxic, single point]"
O=Nc1ccc(Nc2ccccc2)cc1,Potency,[1],inconclusive: 61.4 µM [cytotoxic] and inconclusive: 61.1 µM [cytotoxic]
same,Potency,[17],"inconclusive: 27.4 µM [inhibitor, partial curve] and inconclusive: 27.3 µM [inhibitor, partial curve]"
same,Potency,[12],inconclusive: 68.9 µM [fluorescent]
same,Potency,[7],"active: 61.4 µM and inconclusive: 48.6 µM [cytotoxic, partial curve, poor fit]"
same,Potency,[8],inconclusive: 54.8 µM [partial curve]
same,cAMP activity change,[8],inconclusive: -8.76%
same,Potency,[15],"inconclusive: 61.1 µM [falling, partial curve]"
same,"activity change, negative = inhibition",[15],inconclusive: -11%
same,Potency,[9],"inconclusive: 77.4 µM [cytotoxic, single point]"
CN1CCN(CCCN2c3ccccc3Sc3ccc(C(F)(F)F)cc32)CC1,Potency,[1],"inconclusive: 33.5 µM [cytotoxic, single point]"
same,Potency,[16],"inconclusive: 8.91 µM [activator, partial curve, poor fit]"
same,Potency,[3],active: 26.6 µM
same,Potency,[11],active: 10.6 µM
same,Potency,[12],"inconclusive: 15 µM [rising, partial curve]"
same,Potency,[5],"inconclusive: 11.9 µM [rising, partial curve]"
same,Potency,[14],"inconclusive: 33.5 µM [cytotoxic, single point]"
same,Potency,[7],active: 21.1 µM
same,Potency,[15],active: 26.6 µM
same,Potency,[9],"inconclusive: 5.96 µM [cytotoxic, full curve, poor fit]"

# From PubChem BioAssay (Tox21)
